Experimental findings from publication PMC9911399, “Two distinct binding modes provide the RNA-binding protein RbFox with extraordinary sequence specificity” are described below.

Changes are numbered by the printed parent chain; changes in the protein carry UniProt numbers. Some of the results follow.

Sequences and labels used below:
B1: UGCUAUU (DNA:RNA)
RNA: GGGAGACCGGAAUUCAGAUUGUCCUGCUAUUUUAAAUCCCGUCGUAGCCACCA
DNA 1: CAATCTGAATTCCGGTCTCCC
DNA 2: TGGTGGCTACGACGGGATT
B2: GUUCUCG (DNA:RNA)
RNA: GGGAGACCGGAAUUCAGAUUGUCCGUUCUCGUUAAAUCCCGUCGUAGCCACCA
DNA 1: CAATCTGAATTCCGGTCTCCC
DNA 2: TGGTGGCTACGACGGGATT
B3: UAAUUUA (DNA:RNA)
RNA: B1 RNA with G26A, C27A, A29U, U31A
DNA 1: CAATCTGAATTCCGGTCTCCC
DNA 2: TGGTGGCTACGACGGGATT
B4: GCCCUCG (DNA:RNA)
RNA: B2 RNA with U26C, U27C
DNA 1: CAATCTGAATTCCGGTCTCCC
DNA 2: TGGTGGCTACGACGGGATT
B5: GUGCAGG (DNA:RNA)
RNA: B2 RNA with U27G, U29A, C30G
DNA 1: CAATCTGAATTCCGGTCTCCC
DNA 2: TGGTGGCTACGACGGGATT
B6: AUGUAAU (DNA:RNA)
RNA: B1 RNA with U25A, G26U, C27G, U30A
DNA 1: CAATCTGAATTCCGGTCTCCC
DNA 2: TGGTGGCTACGACGGGATT
B7: UUGUCAA (DNA:RNA)
RNA: B1 RNA with G26U, C27G, A29C, U30A, U31A
DNA 1: CAATCTGAATTCCGGTCTCCC
DNA 2: TGGTGGCTACGACGGGATT
B8: AACAGUG (DNA:RNA)
RNA: B1 RNA with U25A, G26A, U28A, A29G, U31G
DNA 1: CAATCTGAATTCCGGTCTCCC
DNA 2: TGGTGGCTACGACGGGATT
B9: CCGAGCU (DNA:RNA)
RNA: B2 RNA with G25C, U26C, U27G, C28A, U29G, G31U
DNA 1: CAATCTGAATTCCGGTCTCCC
DNA 2: TGGTGGCTACGACGGGATT
B10: GGCCACU (DNA:RNA)
RNA: B1 RNA with U25G, U28C, U30C
DNA 1: CAATCTGAATTCCGGTCTCCC
DNA 2: TGGTGGCTACGACGGGATT
B11: AUGGCGC (DNA:RNA)
RNA: B2 RNA with G25A, U27G, C28G, U29C, C30G, G31C
DNA 1: CAATCTGAATTCCGGTCTCCC
DNA 2: TGGTGGCTACGACGGGATT
B12: GUCUAAA (DNA:RNA)
RNA: B1 RNA with U25G, G26U, U30A, U31A
DNA 1: CAATCTGAATTCCGGTCTCCC
DNA 2: TGGTGGCTACGACGGGATT
B13: CAGGAUA (DNA:RNA)
RNA: B1 RNA with U25C, G26A, C27G, U28G, U31A
DNA 1: CAATCTGAATTCCGGTCTCCC
DNA 2: TGGTGGCTACGACGGGATT
B14: UGUUAGA (DNA:RNA)
RNA: B1 RNA with C27U, U30G, U31A
DNA 1: CAATCTGAATTCCGGTCTCCC
DNA 2: TGGTGGCTACGACGGGATT
B15: CUGCGAG (DNA:RNA)
RNA: B2 RNA with G25C, U27G, U29G, C30A
DNA 1: CAATCTGAATTCCGGTCTCCC
DNA 2: TGGTGGCTACGACGGGATT
B16: GCCAGCG (DNA:RNA)
RNA: B2 RNA with U26C, U27C, C28A, U29G
DNA 1: CAATCTGAATTCCGGTCTCCC
DNA 2: TGGTGGCTACGACGGGATT
B17: UGCCGGU (DNA:RNA)
RNA: B1 RNA with U28C, A29G, U30G
DNA 1: CAATCTGAATTCCGGTCTCCC
DNA 2: TGGTGGCTACGACGGGATT
B18: AUAGGGC (DNA:RNA)
RNA: B2 RNA with G25A, U27A, C28G, U29G, C30G, G31C
DNA 1: CAATCTGAATTCCGGTCTCCC
DNA 2: TGGTGGCTACGACGGGATT
B19: GUCGCAA (DNA:RNA)
RNA: B2 RNA with U27C, C28G, U29C, C30A, G31A
DNA 1: CAATCTGAATTCCGGTCTCCC
DNA 2: TGGTGGCTACGACGGGATT
B20: AGUAACA (DNA:RNA)
RNA: B2 RNA with G25A, U26G, C28A, U29A, G31A
DNA 1: CAATCTGAATTCCGGTCTCCC
DNA 2: TGGTGGCTACGACGGGATT
B21: GUCGGGC (DNA:RNA)
RNA: B2 RNA with U27C, C28G, U29G, C30G, G31C
DNA 1: CAATCTGAATTCCGGTCTCCC
DNA 2: TGGTGGCTACGACGGGATT
B22: CUUGACG (DNA:RNA)
RNA: B2 RNA with G25C, C28G, U29A
DNA 1: CAATCTGAATTCCGGTCTCCC
DNA 2: TGGTGGCTACGACGGGATT
B23: CGACGGG (DNA:RNA)
RNA: B2 RNA with G25C, U26G, U27A, U29G, C30G
DNA 1: CAATCTGAATTCCGGTCTCCC
DNA 2: TGGTGGCTACGACGGGATT
B24: GACGUAG (DNA:RNA)
RNA: B2 RNA with U26A, U27C, C28G, C30A
DNA 1: CAATCTGAATTCCGGTCTCCC
DNA 2: TGGTGGCTACGACGGGATT
B25: AGGAACC (DNA:RNA)
RNA: B1 RNA with U25A, C27G, U28A, U30C, U31C
DNA 1: CAATCTGAATTCCGGTCTCCC
DNA 2: TGGTGGCTACGACGGGATT
B26: GCUUUUG (DNA:RNA)
RNA: B2 RNA with U26C, C28U, C30U
DNA 1: CAATCTGAATTCCGGTCTCCC
DNA 2: TGGTGGCTACGACGGGATT
B27: UCAGAUA (DNA:RNA)
RNA: B1 RNA with G26C, C27A, U28G, U31A
DNA 1: CAATCTGAATTCCGGTCTCCC
DNA 2: TGGTGGCTACGACGGGATT
B28: CAUACAC (DNA:RNA)
RNA: B2 RNA with G25C, U26A, C28A, U29C, C30A, G31C
DNA 1: CAATCTGAATTCCGGTCTCCC
DNA 2: TGGTGGCTACGACGGGATT
B29: CAUAGAU (DNA:RNA)
RNA: B2 RNA with G25C, U26A, C28A, U29G, C30A, G31U
DNA 1: CAATCTGAATTCCGGTCTCCC
DNA 2: TGGTGGCTACGACGGGATT
B30: AGCUCAA (DNA:RNA)
RNA: B1 RNA with U25A, A29C, U30A, U31A
DNA 1: CAATCTGAATTCCGGTCTCCC
DNA 2: TGGTGGCTACGACGGGATT
B31: CCUGAGC (DNA:RNA)
RNA: B2 RNA with G25C, U26C, C28G, U29A, C30G, G31C
DNA 1: CAATCTGAATTCCGGTCTCCC
DNA 2: TGGTGGCTACGACGGGATT

The assay has as its target T1, RBFOX1 RRM RbFoxmut (Fox-RRM*) (Homo sapiens, UniProt Q9NWB1 109-208, R118D;E147R;N151S;E152T).
T1 sequence: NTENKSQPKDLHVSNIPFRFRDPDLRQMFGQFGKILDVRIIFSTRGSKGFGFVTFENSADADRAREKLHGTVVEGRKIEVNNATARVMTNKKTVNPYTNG
Put plainly: EMSA; HiTS-Eq, 1 nM pool, 10 min; buffer printed only for the single-RNA assays: 10 mM Tris pH 7.5, 150 mM NaCl, 3.4 mM EDTA, 0.001% NP-40, 30 C. To be noted: tags: His6 N-terminal (pET28a); label: 5' 32P. An outline of the steps:
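Purified RbFox RRM, wild type or mutant, was incubated for 10 min in 50 µL with 1 nM of a 5′-radiolabelled RNA pool carrying 7 randomized nucleotides, whose flanks were annealed to DNA oligonucleotides, over a series of increasing protein concentrations. Unbound RNA was resolved on 8% native PAGE, cut out, reverse-transcribed, barcoded by PCR and sequenced on an Illumina HiSeq 2500. Relative association constants were derived from changes in read counts for each RNA species versus the control reaction and normalised to the cognate motif.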
For orientation: Mobility shift assays separate free from complexed probe on a gel.
On to B1, for which the binding signal was 0.0929 KA relative to UGCAUGU. For the molecule B2, the binding signal was 0.0978 KA relative to UGCAUGU. Next, B3: 0.0583 KA relative to UGCAUGU; B4: 0.101 KA relative to UGCAUGU; B5: 0.107 KA relative to UGCAUGU. Next, B6: 0.115 KA relative to UGCAUGU; B7: 0.0912 KA relative to UGCAUGU; B8: 0.0616 KA relative to UGCAUGU.

With B9, the binding signal was 0.108 KA relative to UGCAUGU.

Turning to B10, the binding signal is 0.0527 KA relative to UGCAUGU.

With B11, the binding signal was 0.112 KA relative to UGCAUGU. Consider B12, for which the binding signal is 0.111 KA relative to UGCAUGU.

Regarding B13, the binding signal is 0.0992 KA relative to UGCAUGU. Next, B14: 0.118 KA relative to UGCAUGU. Turning to B15, the binding signal was 0.134 KA relative to UGCAUGU. For B16 the value was 0.123 KA relative to UGCAUGU.

For the molecule B17, the binding signal is 0.0872 KA relative to UGCAUGU. As for B18, the binding signal is 0.0911 KA relative to UGCAUGU. Next, B19: 0.0857 KA relative to UGCAUGU; B20: 0.106 KA relative to UGCAUGU. Next, B21: 0.0929 KA relative to UGCAUGU; B22: 0.107 KA relative to UGCAUGU. For B23 the value was 0.0682 KA relative to UGCAUGU; for B24, 0.0961 KA relative to UGCAUGU. As for B25, the binding signal is 0.13 KA relative to UGCAUGU. Next, B26: 0.0974 KA relative to UGCAUGU.

Take B27: the binding signal is 0.111 KA relative to UGCAUGU.

B28: the binding signal is 0.0927 KA relative to UGCAUGU. For B29 the value was 0.0971 KA relative to UGCAUGU; for B30, 0.0673 KA relative to UGCAUGU. On to B31, for which the binding signal is 0.0942 KA relative to UGCAUGU.
